From PMC7672110 (Scientific Reports, 2020) come the findings set out here.

As usually defined, the Kd is the constant that tells how readily two partners part at equilibrium. High values mean a looser complex, low ones a tighter complex. The koff is the first-order rate constant of dissociation. A lower koff goes with a long-lived complex. For orientation: kon means a measure of how fast the partners come together. A higher kon goes with fast association.

The assay concerns the target T1, TRAIL (114-281), His-tagged (human, UniProt P50591 114-281).
T1 construct: TRAIL (TNF-related apoptosis-inducing ligand), soluble form, amino acids 114-281; The TRAIL gene stood between NdeI and BamHI of pET-28a; the construct of TRAIL alone is not described apart from that; Native TRAIL without His tag was used only for pharmacokinetics; also called monomeric TRAIL; His-tagged TRAIL; source: E. coli BL21 (DE3), purified (Ni-NTA agarose)
Kind of assay: SPR; DR5 extracellular region immobilised by amine coupling on dextran-coated chips (585 RU); TRAIL-ATNC 0.52-8.33 nM or TRAIL 25-400 nM flowed at 25 ul/min, 25 C; 100 mM Tris pH 7.4, 150 mM NaCl, 0.005% Tween20, 1 mM DTT; 1:1 Langmuir model. The conditions noted are these: both partners purified. A general note: Surface plasmon resonance follows binding to a sensor surface in real time, without labels.

B1: extracellular region (1-182) of the DR5 protein (receptor)
chain: not shown
notes: signal peptide in the construct; TRAIL receptor 2 (death receptor 5, DR5), extracellular region, residues 1-182; The catalogue product may carry a His tag (surmised from the catalogue number); also called TRAIL receptor 2; death receptor 5; source: bought: Sino Biological
On to B1, for which the Kd came out at 60.2 nM, the koff came out at 0.0015 s⁻¹ and the association rate constant (kon) amounted to 25800 M⁻¹ s⁻¹.
